PubChem BioAssay AID485294 (National Center for Advancing Translational Sciences (NCATS), 2010)
The whole screen tested about 370,000 compounds, of which about 150 (0.041%) were called active. The inconclusive results got no clear call from the source; some entries with a clear call stand among them for comparison. The call rests on the fitted dose curve; in most records, active means well fitted inhibition curve with a large enough effect; inconclusive means small, poorly fitted or top-dose-only effect; inactive means flat fitted curve, though single readings scatter. Potencies of inconclusive entries are left out as doubtful fits. Square brackets hold non-standard residues; d marks the D form. Peptide text beside a SMILES is read from it. * marks the point of attachment. ξ: configuration not given here. ξY = NC(Cc1ccc(O)cc1)C(=O)O; Cbz = O=C(OCc1ccccc1)*; OtBu = CC(C)(C)O*; tBu = CC(C)(C)*

What follows are compounds tested against Beta-lactamase (Escherichia coli (strain K12)) (UniProt P00811) (assay: qHTS Inhibitors of AmpC Beta-Lactamase (assay with detergent)). Conditions: AmpC hydrolysis of nitrocefin, absorbance 480 nm, 0.01% Triton; series mostly up to 114 µM.
UniProt P00811, sequence (P00811 whole entry, looked up): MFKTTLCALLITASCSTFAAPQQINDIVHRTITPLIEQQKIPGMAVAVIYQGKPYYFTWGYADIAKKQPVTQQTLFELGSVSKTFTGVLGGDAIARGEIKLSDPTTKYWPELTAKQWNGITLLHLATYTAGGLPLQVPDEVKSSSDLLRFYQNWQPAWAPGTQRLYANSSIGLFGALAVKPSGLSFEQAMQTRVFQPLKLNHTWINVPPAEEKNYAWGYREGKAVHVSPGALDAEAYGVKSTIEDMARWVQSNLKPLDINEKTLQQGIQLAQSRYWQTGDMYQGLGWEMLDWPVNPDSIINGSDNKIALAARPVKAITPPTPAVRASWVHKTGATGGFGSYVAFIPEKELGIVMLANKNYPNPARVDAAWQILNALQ
Method in brief: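 AmpC (5.3 nM in the dispensed reagent) in 20 mM phosphate pH 7.0 with 0.01% (detergent screen) or 0.0001% Triton X-100 was preincubated with compounds for 15 min at room temperature. Nitrocefin was then added from an 800 uM solution, and hydrolysis was followed at 480 nm.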
Further: nearly all actives have a fitted effect of over 25% in size.
Potency means the concentration at half of the fitted maximal effect; tags describe the fitted curve by direction and shape.

Structure (SMILES) | Potency
CCCN1C(=O)NC2(O)C(=O)c3ccccc3C12O (configuration not stated) | inconclusive [inhibitor, partial curve, poor fit]
CCOc1ccc(C2SCC(=O)N2c2c(C)n(C)n(-c3ccccc3)c2=O)cc1 (configuration not stated) | inconclusive [inhibitor, partial curve]
CCC(=O)Nc1ccc(N2CCN(CC)CC2)c(Cl)c1 | inconclusive [inhibitor, partial curve]
COc1ccc(NC(=O)NNC(=O)c2ccc(Cl)cc2Cl)cc1OC | inconclusive [inhibitor, partial curve]
Cn1c(COc2ccccc2C(C)(C)C)nc2ccccc21 | inconclusive [inhibitor, full curve, poor fit]
CCOc1ccc(C(=O)NCC(=O)N2CC=C(c3ccccc3)CC2)cc1OCC | inconclusive [inhibitor, full curve, poor fit]
CN(C)c1ccc(NS(=O)(=O)c2ccc(-c3csnn3)cc2)cc1 | inactive
CCS(=O)(=O)c1nc(S(=O)(=O)c2ccc(C)cc2)c(NCc2ccccn2)s1 | inactive
CCc1ccc(NC(=O)CN2CCCN(S(=O)(=O)c3ccc(F)cc3)CC2)cc1 | inconclusive [inhibitor, full curve, poor fit]
CCOC(=O)N1CCC(N(C(=O)Nc2ccc(Cl)c(Cl)c2)C(C)CC)CC1 (configuration not stated) | inactive
CC(C)Oc1ccc(CNC(=O)CN2C(=O)c3cccnc3Oc3ccc(Cl)cc32)cc1 | inactive
Cc1ccsc1C(=O)Nc1ccc(O)c(-c2nc3ccccc3s2)c1 | inconclusive [inhibitor, full curve, poor fit]
COc1cc2c(cc1O)CC[n+]1cc3c(OC)c(OC)ccc3cc1-2 | inactive
CC(C)(C)OC(=O)C(Cc1ccc(OC(C)(C)C)cc1)NC(=O)CNC(=O)OCc1ccccc1 (stereo not drawn) (Cbz-Gly-[ξY](tBu)-OtBu) | inconclusive [inhibitor, partial curve, poor fit]
Cc1ccc2nc(N(CCN(C)C)C(=O)c3cc(Cl)sc3Cl)sc2c1 | inconclusive [inhibitor, single point]
O=C(CSc1nnc(SCc2ccccc2)s1)N/N=C/C=C/c1ccco1 | inconclusive [inhibitor, partial curve, poor fit]
O=C(NCc1ccccc1)C12CC3CC(CC(Br)(C3)C1)C2 | inconclusive [inhibitor, partial curve]
CC(=O)C1=C(C)NC(SCC(N)=O)=C(C#N)C1c1ccco1 (configuration not stated) | inactive
Cc1c2c(nc3nnnn13)CCCC2 | inconclusive [inhibitor, full curve, poor fit]
c1ccc(-c2ccc(C(c3ccccc3)n3ccnc3)cc2)cc1 (configuration not stated) | inactive
O=C(NCc1ccccc1)C(=O)NCC1COc2ccccc2O1 (configuration not stated) | inconclusive [inhibitor, full curve, poor fit]
COc1cccc(CC(=O)Nc2ccc3nc(C)sc3c2)c1 | inactive
CC(=O)c1sc(Nc2nc3ccc(F)cc3s2)nc1C | inactive

Structure (SMILES) | Potency
CCOc1ccccc1CNc1nc2ccccc2n1C | inconclusive [inhibitor, partial curve]
CN1CCN(S(=O)(=O)c2ccc(NC(=O)Cc3ccc([N+](=O)[O-])cc3)cc2)CC1 | inconclusive [inhibitor, full curve, poor fit]
CCOc1ccccc1N(CC(=O)NC(C)(C)C)C(=O)c1ccc(CN2CCOCC2)o1 | inconclusive [inhibitor, full curve, poor fit]
CN(C(=O)COc1cc(=O)n(C)c2ccccc12)c1ccc(Cl)cc1 | inactive
COc1cc(OC)cc(-c2nc3ccccc3c(=O)o2)c1 | inactive
C=CCn1c(COc2ccccc2F)nnc1SCC(=O)Nc1cc2oc3ccccc3c2cc1OC | inconclusive [inhibitor, full curve, poor fit]
O=C(NN=C1CCN(Cc2ccccc2)CC1)c1cc2ccccc2cc1O | inconclusive [inhibitor, partial curve]
CC(=O)Nc1cccc2ncccc12 | inconclusive [inhibitor, single point]
CC(=O)N1CCN(C(=O)c2cccc(S(=O)(=O)NCc3ccccc3)c2)CC1 | inconclusive [inhibitor, single point]
CCOc1ccc(-c2cccc(NC(=O)c3ccco3)c2)nn1 | inactive
COc1ccc(OC)c(CN2CCC(C(=O)N(C)CCc3ccc(OC)c(OC)c3)CC2)c1 | inactive
CCOc1ccc(C(=O)Nc2nnc(S(=O)(=O)N(C)Cc3ccco3)s2)cc1 | inconclusive [inhibitor, partial curve, poor fit]
O=C(O)CC(Cc1ccccc1)C(=O)Nc1ccc([N+](=O)[O-])cc1 (configuration not stated) | inconclusive [inhibitor, full curve, poor fit]
CC(=O)c1cccc(NC(=O)Nc2cccnc2)c1 | inactive
CN(C)S(=O)(=O)N1CCN(c2ccc([N+](=O)[O-])cc2)CC1 | inconclusive [inhibitor, full curve, poor fit]
COc1cc2c(cc1OC)C(C)N(C(=O)c1cc3c(=O)oc4ccc(C)cc4c3s1)CC2 (configuration not stated) | inconclusive [inhibitor, full curve, poor fit]
CN(C)CCC(c1ccc(Br)cc1)c1ccccn1 (configuration not stated) | inconclusive [inhibitor, full curve, poor fit]
CN1C(=O)/C(=C/c2cn(CC(=O)N3CCCCC3)c3ccccc23)NC1=S | inconclusive [inhibitor, partial curve, poor fit]
CN1C(=O)Cc2cc(S(=O)(=O)CCC(=O)Nc3ccc(Cl)cc3)ccc21 | inactive
COc1ccc(CNc2oc(COc3ccc(Cl)cc3)nc2C#N)cc1 | inconclusive [inhibitor, single point]
COc1ccccc1C(=O)NCC(=O)N/N=C/c1ccc2c(c1)OCO2 | inconclusive [inhibitor, full curve, poor fit]
COc1ccc(/C=N/NC(=O)C(=O)NCc2cccnc2)cc1 | inconclusive [inhibitor, partial curve]
Cc1cc(C)c(C(=O)CSc2nnc(-c3ccccc3Br)o2)cc1C | inactive

Structure (SMILES) | Potency
CC(C)(C)c1ccc(OCC(=O)O)cc1 | inconclusive [inhibitor, partial curve]
O=[N+]([O-])c1ccc(S(=O)(=O)Nc2ccc(-c3csc(-c4ccccc4)n3)cc2)cc1 | inactive
Cc1ccc(S(=O)(=O)c2cc(N3CCOCC3)nc(-c3ccccc3)n2)cc1 | inconclusive [inhibitor, full curve, poor fit]
CCOc1ccccc1C(=O)Nc1cc(C(=O)NCCc2ccccc2)ccc1Cl | inconclusive [inhibitor, full curve, poor fit]
COc1cc(C(=O)NCCOc2ccc(C)c(C)c2)cc(OC)c1OC | inconclusive [inhibitor, full curve, poor fit]
CCCCN1CN(S(=O)(=O)c2cccs2)c2nc3ccccc3nc21 | inconclusive [inhibitor, partial curve]
O=C(CCCOc1ccc(Cl)cc1)NC1CCCCC1 | inconclusive [inhibitor, full curve]
COc1ccc(CCNCC(=O)N2C(C)CCCC2C)cc1OC (configuration not stated) | inconclusive [inhibitor, full curve, poor fit]
Cc1cc(C)c(NC(=O)COc2cccnc2[N+](=O)[O-])c(C)c1 | inactive
CN(C)S(=O)(=O)NC(c1ccccc1)c1ccccc1 | inconclusive [inhibitor, partial curve]
Cc1[nH]nc2c1/C(=N\O)CCC2 | inconclusive [inhibitor, full curve, poor fit]
O=C(NCCCN1CCCC1=O)C1CCN(S(=O)(=O)c2cccc(C(F)(F)F)c2)CC1 | inconclusive [inhibitor, partial curve, poor fit]
COc1cccc(CCNC(=O)CCc2nnc(Cc3cc(OC)ccc3OC)o2)c1 | inconclusive [inhibitor, full curve, poor fit]
CCC(C)(C)NC(=O)C(c1cccn1C)N(Cc1ccccc1)C(=O)Cn1nnc2ccccc21 (configuration not stated) | inconclusive [inhibitor, full curve, poor fit]
Cc1ccc(NC(=O)CSc2nnc(Cc3cccn3C)n2-c2ccc(F)cc2)cc1 | inconclusive [inhibitor, partial curve, poor fit]
CCN(CC(=O)Nc1ccccc1C(F)(F)F)C(=O)CCS(=O)(=O)c1ccc(C)cc1 | inconclusive [inhibitor, partial curve]
COc1cccc(C2=CC(c3cccc(OC)c3OC(F)F)n3nnnc3N2)c1 (configuration not stated) | inconclusive [inhibitor, full curve, poor fit]
COc1cccc(NC(=O)CSc2nnc3ccc(-c4ccncc4)nn23)c1 | inconclusive [inhibitor, partial curve, poor fit]
Cc1ccccc1CN1CCN(c2nc3ccccc3s2)CC1 | inactive
O=C(CCS(=O)(=O)c1ccccc1)N(Cc1cccnc1)c1nc2c(F)cccc2s1 | inactive
CC(C)CN(c1ccccc1)S(=O)(=O)c1nnc(NC(=O)C2CCCCC2)s1 | inactive
